The whole screen tested about 310,000 compounds, of which about 2,200 (0.71%) showed an effect of 50% or more. Effects have a minus sign here. The list shows a part of the results.

Sequence of human ether-à-go-go-related gene (hERG) potassium channel (Q12809 whole entry, looked up): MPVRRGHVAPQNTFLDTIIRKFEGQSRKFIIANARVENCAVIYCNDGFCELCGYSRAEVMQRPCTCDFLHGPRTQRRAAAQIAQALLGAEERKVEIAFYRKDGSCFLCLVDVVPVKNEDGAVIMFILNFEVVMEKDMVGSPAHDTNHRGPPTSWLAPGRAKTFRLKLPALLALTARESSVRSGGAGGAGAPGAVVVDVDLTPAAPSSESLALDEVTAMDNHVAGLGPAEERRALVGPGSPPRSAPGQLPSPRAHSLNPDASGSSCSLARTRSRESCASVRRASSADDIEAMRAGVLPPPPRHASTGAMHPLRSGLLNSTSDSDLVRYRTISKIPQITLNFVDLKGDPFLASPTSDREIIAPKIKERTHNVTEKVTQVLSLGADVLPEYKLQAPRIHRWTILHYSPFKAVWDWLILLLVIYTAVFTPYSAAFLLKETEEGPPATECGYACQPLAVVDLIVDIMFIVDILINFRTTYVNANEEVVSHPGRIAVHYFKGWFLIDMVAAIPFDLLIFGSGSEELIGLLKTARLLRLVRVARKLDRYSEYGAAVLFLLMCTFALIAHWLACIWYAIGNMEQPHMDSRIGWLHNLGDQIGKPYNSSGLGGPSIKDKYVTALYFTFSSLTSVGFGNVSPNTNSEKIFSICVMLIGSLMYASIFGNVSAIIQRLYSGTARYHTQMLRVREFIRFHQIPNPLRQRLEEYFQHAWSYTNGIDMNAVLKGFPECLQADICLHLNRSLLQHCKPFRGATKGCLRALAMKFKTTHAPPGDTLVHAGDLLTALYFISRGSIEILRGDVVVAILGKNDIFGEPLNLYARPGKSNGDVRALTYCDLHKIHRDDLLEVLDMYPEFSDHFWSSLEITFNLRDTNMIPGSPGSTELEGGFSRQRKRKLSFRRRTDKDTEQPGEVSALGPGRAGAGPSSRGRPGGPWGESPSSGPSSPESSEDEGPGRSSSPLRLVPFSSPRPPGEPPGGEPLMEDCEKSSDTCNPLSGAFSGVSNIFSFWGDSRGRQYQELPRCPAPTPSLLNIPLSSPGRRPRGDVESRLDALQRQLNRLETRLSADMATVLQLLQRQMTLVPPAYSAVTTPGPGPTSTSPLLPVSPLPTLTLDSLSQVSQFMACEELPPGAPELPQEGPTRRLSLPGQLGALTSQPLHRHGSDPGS

This experiment addresses human ether-à-go-go-related gene (hERG) potassium channel (human, UniProt Q12809). Nature of the experiment: primary screen, population patch clamp on CHO cells stably expressing hERG.
Take `NCCNc1cc(N2CCCC2)ccc1[N+](=O)[O-]`: the “hERG current change (%, negative = inhibition) at 1uM” value was determined as 2.91%.

As to `CN(c1ccccc1)S(=O)(=O)c1ccc(NC(=S)NC(=O)c2ccccc2)cc1`, the “hERG current change (%, negative = inhibition) at 1uM” value is -3.05%. The same measure for `O=C(Nc1ccccc1)c1sc(N2CCOCC2)nc1-c1ccccc1`: 14.2%; for `CNC(=O)c1cc(C(=O)c2ccc(F)cc2Cl)c[nH]1`: 15.4%; for `Cc1nc2ccccn2c1-c1ccnc(SCc2ccc(Cl)cc2)n1`: 16%.

For `O=C(Cc1ccc(Br)cc1)NC1CCSC1=O` (stereo not shown), the “hERG current change (%, negative = inhibition) at 1uM” value is 29%.

As to `CCC(=O)N1CCCc2cc(S(=O)(=O)N3CCC(N4CCCCC4)CC3)ccc21`, the “hERG current change (%, negative = inhibition) at 1uM” value was 11.1%. `Cc1nn(-c2ccccc2)c(CC(C)(C)C(=O)O)c1C(=O)O`: the “hERG current change (%, negative = inhibition) at 1uM” value is listed as 9.53%.

Consider `Brc1ccc2nc(-c3cccs3)c(NCC3CCCO3)n2c1` (stereo not shown), for which the “hERG current change (%, negative = inhibition) at 1uM” value is given as -0.745%. For `C(=N\N1CCOCC1)/c1ccsc1.O=P(O)(O)O`, the “hERG current change (%, negative = inhibition) at 1uM” value is recorded as 15.6%. In the case of `C(=N\c1nccs1)/c1c[nH]c2ccccc12`, the “hERG current change (%, negative = inhibition) at 1uM” value amounted to 14.7%. The same measure for `CCN(CC)S(=O)(=O)c1ccc(-c2cc(C(=O)OC)sc2C(F)(F)F)cc1`: 11.4%; for `CCN(Cc1ccccc1)C(=O)CSc1n[nH]c(N)n1`: 19%; for `COc1ccc(/C=C/C2=CCN(Cc3ccc(OC)cc3)CC2)cc1.Cl`: -34.9%. In the case of `CC(=O)Cc1nsc(Nc2ccc(Cl)cc2)n1`, the “hERG current change (%, negative = inhibition) at 1uM” value was determined as 5.37%.

Take `O=C(COC(=O)c1cccc(S(=O)(=O)N2CCc3ccccc32)c1)Nc1ncc(C(F)(F)F)cc1Cl`: the “hERG current change (%, negative = inhibition) at 1uM” value is listed as 15.4%. With `CCOC(=O)C1CCN(Cc2ccc(OC)cc2OC)CC1`, the “hERG current change (%, negative = inhibition) at 1uM” value is recorded as -14.2%. The same measure for `CCN(CC)C(=O)OCCc1cc2ccccc2c(=O)o1`: 14.3%.

As for `CSCc1ccc(C(=O)NCCSc2ccc(Br)cc2)cc1`, the “hERG current change (%, negative = inhibition) at 1uM” value worked out at 11.6%. Under `CCN(CC)CCCN1C(=O)CSC1c1ccc2c(c1)OCO2.Cl` (stereo not shown) stands -15.9%; under `Cc1ccc(N/N=C/c2c(O)cc(C)oc2=O)cc1`, 8.41%; under `CCOc1ccc(N=Nc2c(=O)[nH]n3c(=O)c4c([nH]c23)CCCC4)cc1`, 10.2%. For `COc1ccc(/C=C(/NC(=O)c2ccc([N+](=O)[O-])cc2)C(=O)NCCCN(C)C)cc1`, the “hERG current change (%, negative = inhibition) at 1uM” value is -65.3%.

For `C[C@H](NC(=O)Nc1ccccc1F)C(=O)O`, the “hERG current change (%, negative = inhibition) at 1uM” value was 10.2%.

With `CCn1cnc2c1c(=O)n(CC(=O)OC(C)C(N)=O)c(=O)n2Cc1ccccc1` (stereo not shown), the “hERG current change (%, negative = inhibition) at 1uM” value worked out at 7.63%. Under `C/C(=N\NC(=O)CSCc1ccccc1Cl)c1cccc(NC(=O)c2ccccc2)c1` stands 9.15%. For the molecule `CC(C)c1nc2sc3c(=S)nc[nH]c3c2c2c1CCC2`, the “hERG current change (%, negative = inhibition) at 1uM” value was 11.6%. As for `Cc1cc(C(=O)OCC(=O)Nc2cc(C(F)(F)F)ccc2N2CCOCC2)c(C)o1`, the “hERG current change (%, negative = inhibition) at 1uM” value was found to be 10.6%. The same measure for `COC(=O)C1=C(c2ccc(Cl)c(C(F)(F)F)c2)C[C@@H]2CC[C@H]1N2C(=O)NCc1ccc2c(c1)OCO2`: 5.8%.

On to `CC1=C(C(=O)OC2CCCCCC2)C(c2ccc(C)o2)C2=C(CCCC2=O)N1` (stereo not shown), for which the “hERG current change (%, negative = inhibition) at 1uM” value is on record as 13.4%. The same measure for `Cc1ccc2nc(SCC(=O)NCc3ccccc3Cl)nc(=O)n2c1`: 12.8%; for `Cc1nc2nc[nH]n2c(=O)c1NS(=O)(=O)c1ccc(C(C)(C)C)cc1`: 12.5%. The same measure for `N#Cc1ccccc1NC(=O)CSc1nnc(-c2ccncc2)o1`: 21.1%; for `O=C(NCCC1=CCCCC1)C(=O)NCCc1ccc(Cl)cc1`: 8.52%; for `C=CCNS(=O)(=O)c1cccc(C(C)=O)c1`: 9.26%. Take `C=CCNC(=S)Nc1cc(S(=O)(=O)N2CCOCC2)ccc1-n1cncn1`: the “hERG current change (%, negative = inhibition) at 1uM” value is on record as -0.865%. Under `CCSC1=NC(C)(C)C=C(/C=C/c2ccc(Cl)cc2Cl)N1` stands 8.53%. Under `O=C(Nc1ccccc1N1CCOCC1)c1ccc(Cl)nc1` stands 4.19%; under `O=C(NCSc1ccnc(SCNC(=O)c2ccc(F)cc2)n1)c1ccc(F)cc1`, 10.2%. Under `O=C(COc1ccccc1Br)N1CCN(c2ccccc2)CC1` stands -3.28%; under `CC(=O)N/C(=C/c1ccc2c(c1)OCO2)C(=O)NCCCO`, 15.9%. On to `COc1ccc(C(=O)C2CCCN(C/C=C/c3ccccc3OC)C2)c(OC)c1` (stereo not shown), for which the “hERG current change (%, negative = inhibition) at 1uM” value was -78.6%. Under `COc1ccccc1C(=O)NCCn1cc(SCC(=O)NCC2CCCO2)c2ccccc21` (stereo not shown) stands 5.23%; under `Cc1cc(Cl)ccc1NC(=O)Cn1cncn1`, 7.54%. The same measure for `O=C(COc1ccc2ccccc2c1)Nc1ccncc1`: -3.41%; for `NS(=O)(=O)c1ccc(-c2ccc(/C=C3\C(=O)Nc4ccccc43)o2)cc1`: 13.5%.

The values above are taken from publication PMC4336329 (PLoS ONE, 2015).
